Test results reported in paper PMC7125142.
Results are given in words; binding and its absence hold for the method and conditions named. For part of these data: In cells and extracts the contact can be indirect. Some results given as binding are weak or reduced against the parent protein; the word gives no strength.

Protein sequences, listed by entry. Tags and fused reporters are not part of them. Lines headed by an entry give the natural chain unless they say otherwise; changes in a name come on top. Chains listed by the source or under a name are the forms on record and can include a tag or linker. Residues count along the entry.
UniProt P06748: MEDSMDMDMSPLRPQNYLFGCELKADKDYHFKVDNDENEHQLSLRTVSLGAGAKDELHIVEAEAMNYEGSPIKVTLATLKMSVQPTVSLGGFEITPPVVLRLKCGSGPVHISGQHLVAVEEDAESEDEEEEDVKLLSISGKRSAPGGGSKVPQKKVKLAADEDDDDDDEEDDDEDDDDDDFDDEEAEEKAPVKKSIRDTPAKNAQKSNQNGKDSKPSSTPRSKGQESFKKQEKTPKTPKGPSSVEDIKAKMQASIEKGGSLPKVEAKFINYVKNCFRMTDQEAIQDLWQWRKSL
Flag-tagged NPM1 Δ35 (truncated form of NPM1 with the last 35 amino acids at its C-terminus deleted): residues 1-259 of P06748
UniProt P09874: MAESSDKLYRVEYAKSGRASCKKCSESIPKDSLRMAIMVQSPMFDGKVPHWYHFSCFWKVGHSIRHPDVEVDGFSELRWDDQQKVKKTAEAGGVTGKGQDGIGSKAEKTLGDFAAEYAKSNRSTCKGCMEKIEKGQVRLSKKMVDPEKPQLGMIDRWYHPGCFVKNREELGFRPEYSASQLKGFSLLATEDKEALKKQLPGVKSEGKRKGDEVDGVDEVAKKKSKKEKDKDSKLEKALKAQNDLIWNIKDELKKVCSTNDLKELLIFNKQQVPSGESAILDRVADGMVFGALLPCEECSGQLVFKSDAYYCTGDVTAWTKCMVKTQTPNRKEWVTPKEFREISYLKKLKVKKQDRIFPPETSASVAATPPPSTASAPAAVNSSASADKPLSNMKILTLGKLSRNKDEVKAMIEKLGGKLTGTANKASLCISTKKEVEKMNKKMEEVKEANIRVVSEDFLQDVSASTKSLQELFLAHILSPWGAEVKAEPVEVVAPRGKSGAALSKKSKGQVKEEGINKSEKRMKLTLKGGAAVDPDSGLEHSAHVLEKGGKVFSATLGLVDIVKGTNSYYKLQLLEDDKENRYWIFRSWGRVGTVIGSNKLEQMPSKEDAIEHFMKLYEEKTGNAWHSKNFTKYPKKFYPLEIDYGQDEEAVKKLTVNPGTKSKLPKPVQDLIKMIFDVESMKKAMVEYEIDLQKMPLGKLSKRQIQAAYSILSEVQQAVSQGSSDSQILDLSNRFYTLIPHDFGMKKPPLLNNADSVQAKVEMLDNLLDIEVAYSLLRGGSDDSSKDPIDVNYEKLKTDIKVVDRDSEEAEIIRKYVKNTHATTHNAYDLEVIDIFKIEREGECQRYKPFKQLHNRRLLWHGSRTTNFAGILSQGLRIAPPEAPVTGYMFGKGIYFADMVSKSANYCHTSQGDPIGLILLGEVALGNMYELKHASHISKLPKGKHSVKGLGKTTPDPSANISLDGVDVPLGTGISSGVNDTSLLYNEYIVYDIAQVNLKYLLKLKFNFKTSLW

Key:
[1] = biological target: Flag-tagged NPM1 (nucleophosmin) (UniProt P06748); experiment: co-IP; HEK293T cells transfected with Flag- and/or Myc-tagged proteins; lysates incubated with anti-Flag-agarose or anti-Myc-agarose beads overnight at 4 °C; washed five times with RIPA; Western blot
[2] = biological target: Flag-tagged NPM1 Δ35 (truncated form of NPM1 with the last 35 amino acids at its C-terminus deleted) (UniProt P06748); experiment: as above
Myc-tagged PARP1 [3] = biological target: Myc-tagged PARP1 (UniProt P09874); experiment: as above
Myc-tagged PARP1 [4] = biological target: Myc-tagged PARP1 (UniProt P09874); experiment: co-IP; cell-free: purified Flag-NPM1 mixed with purified Myc-PARP1, treated with RNase; anti-Myc magnetic beads at 4 °C overnight; washed five times with RIPA; Western blot; both purified
[5] = biological target: endogenous NPM1 (nucleophosmin) (human (endogenous in MDA-MB-231)) (UniProt P06748); experiment: co-IP; MDA-MB-231 lysates immunoprecipitated with anti-NPM1, anti-PARP1 or control IgG; Protein A/G-agarose overnight; washed five times with RIPA; Western blot
[6] = biological target: endogenous PARP1 (human (endogenous in MDA-MB-231)) (UniProt P09874); experiment: as above

For “Myc-tagged PARP1 (from UniProt P09874 1-1014)”, the binding [1] was “binds” and the binding [2] was “no binding”.

With “Flag-tagged NPM1 (nucleophosmin) (from UniProt P06748 1-294)” the binding (Myc-tagged PARP1 [3]) was “binds” and the binding (Myc-tagged PARP1 [4]) was “binds”.

“endogenous PARP1 (from UniProt P09874 1-1014)” was tested, and the binding [5] was “binds”.

With “endogenous NPM1 (nucleophosmin) (from UniProt P06748 1-294)” the binding [6] was “binds”.
